Measured values from the supplement of paper PMC12217912.
The other results are listed elsewhere or left out. The full chains were built here from the parent and the listed change. Values near 0.05 are background.

B1: TEV protease; numbered along this chain (parent)
chain: MGESLFKGPRDYNPISSSICHLTNESDGHTTSLYGIGFGPFIITNKHLFRRNNGTLVVQSLHGVFKVKDTTTLQQHLVDGRDMIIIRMPKDFPPFPQKLKFREPQREERICLVTTNFQTKSMSSMVSDTSCTFPSGDGIFWKHWIQTKDGQCGSPLVSTRDGFIVGIHSASNFTNTNNYFTSVPKNFMELLTNQEAQQWVSGWRLNADSVLWGGHKVFMVKPEEPFQPVKEATQL

Variants of: B1
Experiment: raw area under fraction-flipped curve 0-4 h after induction (AUC4h, not background-subtracted), DNA-recorder readout of cleavage of the substrate (dimensionless); higher = more cleavage of the substrate by the protease variant
Settings: temperature: 34 °C; time window: 0-4 h after rhamnose induction
Protocol: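 In vivo DNA recorder in E. coli TOP10(DE3) ΔrhaA at 34 °C. Each TEVp single-site mutant (parent TEVp 0) is paired with a single-site variant of the 7-mer TEVs (canonical ENLYFQ|S). The substrate sits between flexible linkers in a Bxb1-sfGFP-TEVs-SsrA fusion, so cleavage stabilises Bxb1 and speeds flipping of a recombination array, read by NGS. The value is the raw area under the fraction-flipped curve over 0-4 h after rhamnose induction (AUC4h), with ≥20 reads per time point. It is not background-subtracted; inactive controls average about 0.047.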
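Also: Bxb1 expression induced with 0.2% (w/v) L-rhamnose at OD600 near 0.5, cultures sampled hourly, flipped fraction per protease–substrate barcode pair counted by paired-end Illumina sequencing.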

Variant	area with substrate ENAYFQS	area with substrate ENDYFQS	area with substrate ENFYFQS	area with substrate ENHYFQS	area with substrate ENIYFQS	area with substrate ENNYFQS	area with substrate ENPYFQS	area with substrate ENSYFQS	area with substrate ENEYFQS	area with substrate ENGYFQS	area with substrate ENMYFQS	area with substrate ENQYFQS	area with substrate ENTYFQS	area with substrate ENVYFQS	area with substrate ENYYFQS	area with substrate ENCYFQS	area with substrate ENRYFQS	area with substrate ENWYFQS	area with substrate ENKYFQS
MGESLFKGPRDYNPISSSICHLTNESDGHTTSLYGIGFGPFIITNKHLFRRNNGTLVVQSLHGVFKVKDTTTLQQHLVDGRDMIIIRMPKDFPPFPQKLKFREPQREERICLVTPNFQTKSMSSMVSDTSCTFPSGDGIFWKHWIQTKDGQCGSPLVSTRDGFIVGIHSASNFTNTNNYFTSVPKNFMELLTNQEAQQWVSGWRLNADSVLWGGHKVFMVKPEEPFQPVKEATQL [T115P]	0.0531	0.069	0.0507	0.0642	0.131	0.0535	0.0888	0.0532	–	–	–	–	–	–	–	–	–	–	–
MGESLFKGPRDYNPISSSICHLTNESDGHTTSLYGIGFGPFIITNKHLFRRNNGTLVVQSLHGVFKVKDTTTLQQHLVDGRDMIIIRMPKDFPPFPQKLKFREPQREERICLVTSNFQTKSMSSMVSDTSCTFPSGDGIFWKHWIQTKDGQCGSPLVSTRDGFIVGIHSASNFTNTNNYFTSVPKNFMELLTNQEAQQWVSGWRLNADSVLWGGHKVFMVKPEEPFQPVKEATQL [T115S]	0.0645	0.0617	0.0733	0.068	0.142	–	0.0741	–	0.0666	0.0568	0.0613	0.0601	0.0605	0.0848	0.0624	–	–	–	–
MGESLFKGPRDYNPISSSICHLTNESDGHTTSLYGIGFGPFIITNKHLFRRNNGTLVVQSLHGVFKVKDTTTLQQHLVDGRDMIIIRMPKDFPPFPQKLKFREPQREERICLVTTRFQTKSMSSMVSDTSCTFPSGDGIFWKHWIQTKDGQCGSPLVSTRDGFIVGIHSASNFTNTNNYFTSVPKNFMELLTNQEAQQWVSGWRLNADSVLWGGHKVFMVKPEEPFQPVKEATQL [N116R]	0.097	0.0348	–	–	0.102	0.0535	–	–	–	0.0798	–	0.0556	–	0.0614	0.0495	0.0393	0.0412	–	–
MGESLFKGPRDYNPISSSICHLTNESDGHTTSLYGIGFGPFIITNKHLFRRNNGTLVVQSLHGVFKVKDTTTLQQHLVDGRDMIIIRMPKDFPPFPQKLKFREPQREERICLVTTNWQTKSMSSMVSDTSCTFPSGDGIFWKHWIQTKDGQCGSPLVSTRDGFIVGIHSASNFTNTNNYFTSVPKNFMELLTNQEAQQWVSGWRLNADSVLWGGHKVFMVKPEEPFQPVKEATQL [F117W]	0.0612	0.058	–	–	–	0.0626	–	–	0.0559	–	–	0.0611	–	0.116	0.059	–	0.053	–	–
MGESLFKGPRDYNPISSSICHLTNESDGHTTSLYGIGFGPFIITNKHLFRRNNGTLVVQSLHGVFKVKDTTTLQQHLVDGRDMIIIRMPKDFPPFPQKLKFREPQREERICLVTTNFQPKSMSSMVSDTSCTFPSGDGIFWKHWIQTKDGQCGSPLVSTRDGFIVGIHSASNFTNTNNYFTSVPKNFMELLTNQEAQQWVSGWRLNADSVLWGGHKVFMVKPEEPFQPVKEATQL [T119P]	0.0476	0.0307	–	–	–	–	–	0.0804	–	–	0.0998	0.0514	0.0639	0.0893	–	0.0714	–	0.0473	–
MGESLFKGPRDYNPISSSICHLTNESDGHTTSLYGIGFGPFIITNKHLFRRNNGTLVVQSLHGVFKVKDTTTLQQHLVDGRDMIIIRMPKDFPPFPQKLKFREPQREERICLVTTNFQTMSMSSMVSDTSCTFPSGDGIFWKHWIQTKDGQCGSPLVSTRDGFIVGIHSASNFTNTNNYFTSVPKNFMELLTNQEAQQWVSGWRLNADSVLWGGHKVFMVKPEEPFQPVKEATQL [K120M]	0.0692	0.042	–	0.0886	0.117	–	0.053	0.0755	0.0692	0.0443	–	0.0605	0.0762	0.0891	–	0.0623	0.059	0.0588	–
MGESLFKGPRDYNPISSSICHLTNESDGHTTSLYGIGFGPFIITNKHLFRRNNGTLVVQSLHGVFKVKDTTTLQQHLVDGRDMIIIRMPKDFPPFPQKLKFREPQREERICLVTTNFQTRSMSSMVSDTSCTFPSGDGIFWKHWIQTKDGQCGSPLVSTRDGFIVGIHSASNFTNTNNYFTSVPKNFMELLTNQEAQQWVSGWRLNADSVLWGGHKVFMVKPEEPFQPVKEATQL [K120R]	0.0477	0.0595	0.0588	–	–	–	0.0635	0.0615	0.0761	0.0648	–	0.047	0.0663	0.09	–	0.0673	0.0595	–	0.0587
MGESLFKGPRDYNPISSSICHLTNESDGHTTSLYGIGFGPFIITNKHLFRRNNGTLVVQSLHGVFKVKDTTTLQQHLVDGRDMIIIRMPKDFPPFPQKLKFREPQREERICLVTTNFQTKCMSSMVSDTSCTFPSGDGIFWKHWIQTKDGQCGSPLVSTRDGFIVGIHSASNFTNTNNYFTSVPKNFMELLTNQEAQQWVSGWRLNADSVLWGGHKVFMVKPEEPFQPVKEATQL [S121C]	0.0534	–	–	0.0565	0.113	–	–	0.135	0.079	0.0649	–	–	0.0631	0.0812	–	0.0594	–	–	–
MGESLFKGPRDYNPISSSICHLTNESDGHTTSLYGIGFGPFIITNKHLFRRNNGTLVVQSLHGVFKVKDTTTLQQHLVDGRDMIIIRMPKDFPPFPQKLKFREPQREERICLVTTNFQTKRMSSMVSDTSCTFPSGDGIFWKHWIQTKDGQCGSPLVSTRDGFIVGIHSASNFTNTNNYFTSVPKNFMELLTNQEAQQWVSGWRLNADSVLWGGHKVFMVKPEEPFQPVKEATQL [S121R]	0.0643	0.0622	0.0497	0.0582	–	0.0659	0.0625	0.0591	0.0706	0.0615	0.0709	0.0628	0.0462	0.0866	0.06	0.0555	0.0561	0.0472	0.0635
MGESLFKGPRDYNPISSSICHLTNESDGHTTSLYGIGFGPFIITNKHLFRRNNGTLVVQSLHGVFKVKDTTTLQQHLVDGRDMIIIRMPKDFPPFPQKLKFREPQREERICLVTTNFQTKSCSSMVSDTSCTFPSGDGIFWKHWIQTKDGQCGSPLVSTRDGFIVGIHSASNFTNTNNYFTSVPKNFMELLTNQEAQQWVSGWRLNADSVLWGGHKVFMVKPEEPFQPVKEATQL [M122C]	0.0587	–	–	–	0.103	0.0546	–	0.0571	0.053	0.0574	–	0.065	–	–	0.0428	0.0871	0.0579	–	0.0695
